Data reported in paper PMC9911399, “Two distinct binding modes provide the RNA-binding protein RbFox with extraordinary sequence specificity”.
Changes are numbered by the printed parent chain; changes in the protein carry UniProt numbers. The list shows a part of the results.

T1: RBFOX1 RRM (Homo sapiens, UniProt Q9NWB1 109-208)
T1 sequence: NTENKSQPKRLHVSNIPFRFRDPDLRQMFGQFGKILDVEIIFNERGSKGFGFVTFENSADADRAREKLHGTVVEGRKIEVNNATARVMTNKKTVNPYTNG

B1: GUCCGUC (DNA:RNA)
RNA: GGGAGACCGGAAUUCAGAUUGUCCGUCCGUCUUAAAUCCCGUCGUAGCCACCA
DNA 1: CAATCTGAATTCCGGTCTCCC
DNA 2: TGGTGGCTACGACGGGATT
B2: CGUGGCC (DNA:RNA)
RNA: B1 RNA with G25C, U26G, C27U, C28G, U30C
DNA 1: CAATCTGAATTCCGGTCTCCC
DNA 2: TGGTGGCTACGACGGGATT
B3: ACGGUCC (DNA:RNA)
RNA: B1 RNA with G25A, U26C, C27G, C28G, G29U, U30C
DNA 1: CAATCTGAATTCCGGTCTCCC
DNA 2: TGGTGGCTACGACGGGATT
B4: CCAUCAA (DNA:RNA)
RNA: GGGAGACCGGAAUUCAGAUUGUCCCCAUCAAUUAAAUCCCGUCGUAGCCACCA
DNA 1: CAATCTGAATTCCGGTCTCCC
DNA 2: TGGTGGCTACGACGGGATT
B5: UCAGGUU (DNA:RNA)
RNA: B4 RNA with C25U, U28G, C29G, A30U, A31U
DNA 1: CAATCTGAATTCCGGTCTCCC
DNA 2: TGGTGGCTACGACGGGATT
B6: AUGACGU (DNA:RNA)
RNA: B4 RNA with C25A, C26U, A27G, U28A, A30G, A31U
DNA 1: CAATCTGAATTCCGGTCTCCC
DNA 2: TGGTGGCTACGACGGGATT
B7: AAUUUAU (DNA:RNA)
RNA: B4 RNA with C25A, C26A, A27U, C29U, A31U
DNA 1: CAATCTGAATTCCGGTCTCCC
DNA 2: TGGTGGCTACGACGGGATT
B8: GCUGACU (DNA:RNA)
RNA: B4 RNA with C25G, A27U, U28G, C29A, A30C, A31U
DNA 1: CAATCTGAATTCCGGTCTCCC
DNA 2: TGGTGGCTACGACGGGATT
B9: UUAGUAU (DNA:RNA)
RNA: B4 RNA with C25U, C26U, U28G, C29U, A31U
DNA 1: CAATCTGAATTCCGGTCTCCC
DNA 2: TGGTGGCTACGACGGGATT
B10: UCCCGGG (DNA:RNA)
RNA: B1 RNA with G25U, U26C, U30G, C31G
DNA 1: CAATCTGAATTCCGGTCTCCC
DNA 2: TGGTGGCTACGACGGGATT
B11: UUUUCUU (DNA:RNA)
RNA: B4 RNA with C25U, C26U, A27U, A30U, A31U
DNA 1: CAATCTGAATTCCGGTCTCCC
DNA 2: TGGTGGCTACGACGGGATT
B12: GCUGUUC (DNA:RNA)
RNA: B1 RNA with U26C, C27U, C28G, G29U
DNA 1: CAATCTGAATTCCGGTCTCCC
DNA 2: TGGTGGCTACGACGGGATT
B13: UCUGCGA (DNA:RNA)
RNA: B4 RNA with C25U, A27U, U28G, A30G
DNA 1: CAATCTGAATTCCGGTCTCCC
DNA 2: TGGTGGCTACGACGGGATT
B14: GAAAGUU (DNA:RNA)
RNA: B1 RNA with U26A, C27A, C28A, C31U
DNA 1: CAATCTGAATTCCGGTCTCCC
DNA 2: TGGTGGCTACGACGGGATT
B15: CUACUUA (DNA:RNA)
RNA: B4 RNA with C26U, U28C, C29U, A30U
DNA 1: CAATCTGAATTCCGGTCTCCC
DNA 2: TGGTGGCTACGACGGGATT
B16: AGACAUA (DNA:RNA)
RNA: B4 RNA with C25A, C26G, U28C, C29A, A30U
DNA 1: CAATCTGAATTCCGGTCTCCC
DNA 2: TGGTGGCTACGACGGGATT
B17: CGACGCC (DNA:RNA)
RNA: B1 RNA with G25C, U26G, C27A, U30C
DNA 1: CAATCTGAATTCCGGTCTCCC
DNA 2: TGGTGGCTACGACGGGATT
B18: GGAGGGC (DNA:RNA)
RNA: B1 RNA with U26G, C27A, C28G, U30G
DNA 1: CAATCTGAATTCCGGTCTCCC
DNA 2: TGGTGGCTACGACGGGATT
B19: CGUUGAU (DNA:RNA)
RNA: B4 RNA with C26G, A27U, C29G, A31U
DNA 1: CAATCTGAATTCCGGTCTCCC
DNA 2: TGGTGGCTACGACGGGATT
B20: GAGAGCA (DNA:RNA)
RNA: B1 RNA with U26A, C27G, C28A, U30C, C31A
DNA 1: CAATCTGAATTCCGGTCTCCC
DNA 2: TGGTGGCTACGACGGGATT
B21: ACAUGUG (DNA:RNA)
RNA: B4 RNA with C25A, C29G, A30U, A31G
DNA 1: CAATCTGAATTCCGGTCTCCC
DNA 2: TGGTGGCTACGACGGGATT
B22: CGUCUUG (DNA:RNA)
RNA: B1 RNA with G25C, U26G, C27U, G29U, C31G
DNA 1: CAATCTGAATTCCGGTCTCCC
DNA 2: TGGTGGCTACGACGGGATT
B23: UAGGUAC (DNA:RNA)
RNA: B4 RNA with C25U, C26A, A27G, U28G, C29U, A31C
DNA 1: CAATCTGAATTCCGGTCTCCC
DNA 2: TGGTGGCTACGACGGGATT
B24: GACAGAG (DNA:RNA)
RNA: B1 RNA with U26A, C28A, U30A, C31G
DNA 1: CAATCTGAATTCCGGTCTCCC
DNA 2: TGGTGGCTACGACGGGATT
B25: GAGAUUC (DNA:RNA)
RNA: B1 RNA with U26A, C27G, C28A, G29U
DNA 1: CAATCTGAATTCCGGTCTCCC
DNA 2: TGGTGGCTACGACGGGATT
B26: ACGUCCA (DNA:RNA)
RNA: B4 RNA with C25A, A27G, A30C
DNA 1: CAATCTGAATTCCGGTCTCCC
DNA 2: TGGTGGCTACGACGGGATT
B27: AAGCAUG (DNA:RNA)
RNA: B1 RNA with G25A, U26A, C27G, G29A, C31G
DNA 1: CAATCTGAATTCCGGTCTCCC
DNA 2: TGGTGGCTACGACGGGATT
B28: GAGGUUC (DNA:RNA)
RNA: B1 RNA with U26A, C27G, C28G, G29U
DNA 1: CAATCTGAATTCCGGTCTCCC
DNA 2: TGGTGGCTACGACGGGATT
B29: UUUGGAC (DNA:RNA)
RNA: B1 RNA with G25U, C27U, C28G, U30A
DNA 1: CAATCTGAATTCCGGTCTCCC
DNA 2: TGGTGGCTACGACGGGATT
B30: UACGAAG (DNA:RNA)
RNA: B4 RNA with C25U, C26A, A27C, U28G, C29A, A31G
DNA 1: CAATCTGAATTCCGGTCTCCC
DNA 2: TGGTGGCTACGACGGGATT
B31: CCACAUU (DNA:RNA)
RNA: B4 RNA with U28C, C29A, A30U, A31U
DNA 1: CAATCTGAATTCCGGTCTCCC
DNA 2: TGGTGGCTACGACGGGATT

Biological target: T1, RBFOX1 RRM
Assay: EMSA; HiTS-Eq, 1 nM pool, 10 min; buffer printed only for the single-RNA assays: 10 mM Tris pH 7.5, 150 mM NaCl, 3.4 mM EDTA, 0.001% NP-40, 30 C
Conditions: tags: His6 N-terminal (pET28a); label: 5' 32P
Summary of the method: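 Purified RbFox RRM (wild type or mutant) was equilibrated for 10 min in 50 µL with 1 nM of a 5′-radiolabelled pool of RNA with 7 randomized nucleotides, its flanks annealed to DNA oligonucleotides, across increasing protein concentrations. Free RNA was separated by 8% native PAGE, excised, reverse-transcribed, PCR-barcoded and sequenced on an Illumina HiSeq 2500. Relative association constants came from read-count changes of each variant against the control reaction, normalised to the cognate motif.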

With B1 as the binder, how does the binding signal read?
Its binding signal is 0.0149 KA relative to UGCAUGU.

Which binding signal does the source give for B2 here?
The binding signal was 0.0147 KA relative to UGCAUGU.

Which binding signal does the source give for B3 here?
The binding signal was 0.00564 KA relative to UGCAUGU.

B4 was tested. Which binding signal did it give?
The binding signal was 0.00282 KA relative to UGCAUGU.

For B5, which binding signal is on record?
The binding signal was 0.0129 KA relative to UGCAUGU.

Which binding signal does the source give for B6 here?
The binding signal was 0.0112 KA relative to UGCAUGU.

For B7, which binding signal is on record?
Its binding signal is 0.00172 KA relative to UGCAUGU.

For B8, which binding signal is on record?
The binding signal was 0.016 KA relative to UGCAUGU.

For B9, which binding signal is on record?
The binding signal was 0.00555 KA relative to UGCAUGU.

How did the binding signal turn out when B10 was run?
Its binding signal is 0.00832 KA relative to UGCAUGU.

For B11, which binding signal is on record?
Its binding signal is 0.0124 KA relative to UGCAUGU.

B12 was tested. Which binding signal did it give?
The binding signal was 0.0202 KA relative to UGCAUGU.

How did the binding signal turn out when B13 was run?
The binding signal was 0.0192 KA relative to UGCAUGU.

How did the binding signal turn out when B14 was run?
The binding signal was 0.0131 KA relative to UGCAUGU.

With B15 as the binder, how does the binding signal read?
Its binding signal is 0.00117 KA relative to UGCAUGU.

B16 was tested. Which binding signal did it give?
Its binding signal is 0.00122 KA relative to UGCAUGU.

Which binding signal does the source give for B17 here?
The binding signal was 0.00862 KA relative to UGCAUGU.

How did the binding signal turn out when B18 was run?
The binding signal was 0.0119 KA relative to UGCAUGU.

For B19, which binding signal is on record?
Its binding signal is 0.014 KA relative to UGCAUGU.

B20 was tested. Which binding signal did it give?
Its binding signal is 0.0187 KA relative to UGCAUGU.

B21 was tested. Which binding signal did it give?
The binding signal was 0.0117 KA relative to UGCAUGU.

B22 was tested. Which binding signal did it give?
The binding signal was 0.0157 KA relative to UGCAUGU.

With B23 as the binder, how does the binding signal read?
Its binding signal is 0.0182 KA relative to UGCAUGU.

How did the binding signal turn out when B24 was run?
Its binding signal is 0.0125 KA relative to UGCAUGU.

How did the binding signal turn out when B25 was run?
Its binding signal is 0.0158 KA relative to UGCAUGU.

Which binding signal does the source give for B26 here?
The binding signal was 0.0022 KA relative to UGCAUGU.

B27 was tested. Which binding signal did it give?
Its binding signal is 0.674 KA relative to UGCAUGU.

Which binding signal does the source give for B28 here?
Its binding signal is 0.0204 KA relative to UGCAUGU.

B29 was tested. Which binding signal did it give?
Its binding signal is 0.00452 KA relative to UGCAUGU.

For B30, which binding signal is on record?
Its binding signal is 0.00764 KA relative to UGCAUGU.

How did the binding signal turn out when B31 was run?
Its binding signal is 0.000968 KA relative to UGCAUGU.
